{
  "source": "the supplement of paper PMC4604168 (melanoma cell lines)",
  "note": "This is one part of the list. Most values come without repeats; read them as rough.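 Note: cell number obtained by counting DAPI-stained nuclei in high-throughput microscope images with image analysis software, screen run in 1,536-well plates.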",
  "data": [
    {"test_system": "A101D", "assay": "cell count relative to DMSO control; melanoma cells; higher = more viable cells", "conditions": "library dose: low library concentration; 72 h", "units": {"cell count": "%"}, "values": [
      {"compound": "Nc1ccn([C@@H]2O[C@H](CO)[C@@H](O)C2(F)F)c(=O)n1", "note": "[gemcitabine] + O=c1cc(-c2cccc3c2Sc2ccccc2S3)oc(N2CCOCC2)c1 [KU55933] (first compound 0.0004 µM, partner dose 1 µM)", "cell count": 100},
      {"compound": "Nc1nc(F)nc2c1ncn2[C@@H]1O[C@H](CO)[C@@H](O)[C@@H]1O", "note": "[fludarabine] + Oc1cc(-c2nc(-c3ccccc3)[nH]c2-c2ccncc2)ccc1Cl [L779450] (first compound 0.2 µM, partner dose 0.2 µM)", "cell count": 109},
      {"compound": "Nc1ccn([C@@H]2O[C@H](CO)[C@@H](O)C2(F)F)c(=O)n1", "note": "[gemcitabine] + CCN(CC)CCCCNc1ncc2cc(-c3cc(OC)cc(OC)c3)c(NC(=O)NC(C)(C)C)nc2n1 [PD173074] (first compound 0.0004 µM, partner dose 0.1 µM)", "cell count": 104},
      {"compound": "CC(=O)O[C@@]12CO[C@@H]1C[C@H](O)[C@@]1(C)C(=O)[C@H](O)C3=C(C)[C@@H](OC(=O)[C@H](O)[C@@H](NC(=O)OC(C)(C)C)c4ccccc4)C[C@@](O)([C@@H](OC(=O)c4ccccc4)[C@H]21)C3(C)C", "note": "[Docetaxel] + CCCCCCCCCCCC1=C(O)C(=O)C=C(O)C1=O [Embelin] (first compound 0.0001 µM, partner dose 1.2 µM)", "cell count": 55.8},
      {"compound": "Nc1nc(F)nc2c1ncn2[C@@H]1O[C@H](CO)[C@@H](O)[C@@H]1O", "note": "[fludarabine] + O=c1cc(-c2cccc3c2Sc2ccccc2S3)oc(N2CCOCC2)c1 [KU55933] (first compound 0.2 µM, partner dose 1 µM)", "cell count": 117},
      {"compound": "CO[C@H]1C[C@@H]2CC[C@@H](C)[C@@](O)(O2)C(=O)C(=O)N2CCCC[C@H]2C(=O)O[C@H]([C@H](C)C[C@@H]2CC[C@@H](OCCO)[C@H](OC)C2)CC(=O)[C@H](C)/C=C(\\C)[C@@H](O)[C@@H](OC)C(=O)[C@H](C)C[C@H](C)/C=C/C=C/C=C/1C", "note": "[everolimus] + O=c1cc(-c2cccc3c2Sc2ccccc2S3)oc(N2CCOCC2)c1 [KU55933] (first compound 0.02 µM, partner dose 1 µM)", "cell count": 75.5},
      {"compound": "CC(=O)O[C@@]12CO[C@@H]1C[C@H](O)[C@@]1(C)C(=O)[C@H](O)C3=C(C)[C@@H](OC(=O)[C@H](O)[C@@H](NC(=O)OC(C)(C)C)c4ccccc4)C[C@@](O)([C@@H](OC(=O)c4ccccc4)[C@H]21)C3(C)C", "note": "[Docetaxel] + COc1ccc2c(c1)CCC1C2CCC2(C)C(NCCCCCCN3C(=O)C=CC3=O)CCC12 [U73122] (first compound 0.0001 µM, partner dose 0.4 µM)", "cell count": 57.9},
      {"compound": "CC(=O)O[C@@]12CO[C@@H]1C[C@H](O)[C@@]1(C)C(=O)[C@H](O)C3=C(C)[C@@H](OC(=O)[C@H](O)[C@@H](NC(=O)OC(C)(C)C)c4ccccc4)C[C@@](O)([C@@H](OC(=O)c4ccccc4)[C@H]21)C3(C)C", "note": "[Docetaxel] + O=C(O)C(=O)Nc1sc2c(c1C(=O)O)CCNC2 [TCS401] (first compound 0.0001 µM, partner dose 1.66667 µM)", "cell count": 63.2},
      {"compound": "CO[C@H]1C[C@@H]2CC[C@@H](C)[C@@](O)(O2)C(=O)C(=O)N2CCCC[C@H]2C(=O)O[C@H]([C@H](C)C[C@@H]2CC[C@@H](OCCO)[C@H](OC)C2)CC(=O)[C@H](C)/C=C(\\C)[C@@H](O)[C@@H](OC)C(=O)[C@H](C)C[C@H](C)/C=C/C=C/C=C/1C", "note": "[everolimus] + c1cc(-c2cnn3cc(-c4ccc(OCCN5CCCCC5)cc4)cnc23)ccn1 [Dorsomorphin] (first compound 0.02 µM, partner dose 0.4 µM)", "cell count": 90.9},
      {"compound": "CC(=O)c1c(C)c2cnc(Nc3ccc(N4CCNCC4)cn3)nc2n(C2CCCC2)c1=O", "note": "[palbociclib] + Oc1cc(-c2nc(-c3ccccc3)[nH]c2-c2ccncc2)ccc1Cl [L779450] (first compound 0.04 µM, partner dose 0.2 µM)", "cell count": 76.7},
      {"compound": "Nc1ncn([C@H]2C[C@H](O)[C@@H](CO)O2)c(=O)n1", "note": "[decitabine] + O=C(Nc1ccccc1)c1cc([N+](=O)[O-])ccc1Cl [GW9662] (first compound 0.1 µM, partner dose 2 µM)", "cell count": 89.3}
    ]}
  ]
}
